From ChEMBL document CHEMBL4888484, “Replenishing the malaria drug discovery pipeline: Screening and hit evaluation of the MMV Hit Generation Library 1 (HGL1) against asexual blood stage Plasmodium falciparum ,using a nano luciferase reporter read-out” (2022)
Screen size: about 150,000 compounds; about 540 (0.36%) showed an effect of 50% or more. The list shows a part of the results.

What follows are compounds tested on Plasmodium falciparum (assay: Primary screen in NF54 nanoGlo assay, in single point, at 2uM, 72h; a lower Z score goes with more inhibition). Conditions: timepoint 72 hour.
Assay type: functional, Erythrocyte

Structure (SMILES)	% Inhibition [%]	Z score
CCOc1ccccc1CN[C@@H](CC)CO	-6	1.17
COCCc1nc2c(c(N3CCN(c4cccc(C)c4)CC3)n1)CCOCC2	4	-0.38
CCCN(CC(=O)O)S(=O)(=O)c1c(Cl)cccc1Cl	3	-0.44
O=C1CCN(Cc2cccc(OC(F)(F)F)c2)CCCCCCN1	-13	2.28
CCOC1CC(N(C)CC(=O)Nc2c(C)nn(C)c2C)C12CCCC2 (stereo not drawn)	-11	1.54
CCOC(=O)c1cc(-c2ccc(N3CCN(C(=O)c4cnn(C)c4Cl)CC3)cc2)n(-c2ccccn2)n1	-4	0.4
CNS(=O)(=O)c1cc(C(=O)N[C@@H]2C(=O)OCC2(C)C)ccc1OC	-4	0.34
O=C(CCNCCc1nc2c(s1)CCC2)N1CCc2ccccc2C1	-8	1.2
Cc1ccc(C)c(NC(=O)NCCn2nnc3cc(S(=O)(=O)NC(C)C)ccc32)c1	32	-3.66
CC(=O)N1CCC(NCc2cccc3c2OC(C)(C)C3)C(C)C1 (stereo not drawn)	-4	0.5
c1csc(-c2nnc(N3CCNCC3)s2)c1	-4	0.48
CC[C@@H](c1nc2c3cnn(-c4ccccc4)c3ncn2n1)n1cc(Br)cn1	6	-0.96
CC(C)c1nc(C(=O)N2CCCCCC2C2CCCCC2=O)cs1 (stereo not drawn)	-2	0.24
CC(C)N1CCC(NC(=O)c2ccon2)C1c1ccc(F)c(F)c1 (stereo not drawn)	9	-0.9
CC(C)(C)c1ccc2oc(CN3C[C@@H](C(=O)O)CC3=O)nc2c1	7	-0.92
CS(=O)(=O)CCN1CCC[C@H](c2ccc(F)cc2)CC1	-4	0.59
O=C1CN(Cc2ccc(F)cc2Cl)S(=O)(=O)c2ccccc2N1Cc1ccccc1F	9	-1.07
N=C(COc1ccc(Cl)cc1)NC1CCCCC1	-2	0.23
CCNc1ccccc1CNc1nncn1C	-5	0.62
Cc1nc(C(=O)Nc2ccc(Cl)c(-n3nnnc3C3CC3)c2)c(=O)[nH]c1C	-9	0.76
Cc1ccc(C)c(NC(=O)[C@H]2CCCN(S(=O)(=O)c3ccc4c(c3)NC(=O)CO4)C2)c1	-11	1.84
COCC(C)NC(=O)C(C#N)C(=NCc1ccccc1)NCCc1nc(C)c(C)s1 (stereo not drawn)	-18	2.4
CC(=O)c1ccc2c(c1)N(Cc1ccc(C(=O)NCc3ccccn3)cc1)C(=O)CO2	-22	1.93
Cc1nc(C2(NC(=O)c3ccccc3)CCCCC2)sc1C(=O)Nc1ccccc1	-8	1.4
Cc1ncc(CNc2ccccc2C(=O)NCC(F)(F)F)s1	-6	0.74
Cc1cccc(C)c1CCNC(=O)Cn1cnc2c1CCNC21CCOCC1	-6	1.02
CN1CCC[C@H](Cn2ccc3ccccc3c2=O)C1	-10	1.9

Structure (SMILES)	% Inhibition [%]	Z score
COC(=O)c1ccccc1CN(Cc1cccn1Cc1ccc(C)cc1)CC1CCCCC1	-10	1.06
CCC1CCCCN1C(=O)CC1(c2ccccc2C)CC(=O)N(Cc2ccncc2)C1=O (stereo not drawn)	-8	1.02
Oc1ccc(N2CCN(Cc3nc4ccccc4o3)CC2)cc1	10	-1.18
Cc1ccc(-c2cc(C(=O)N(Cc3ccccc3)[C@H]3CCS(=O)(=O)C3)no2)cc1F	-11	2.13
CCn1cc(-c2ccc(Cl)cc2)cc1C(=O)N1CCCC1	-2	0.32
CC(C)(NC(=O)CCc1cn[nH]c1)c1ccccc1Br	2	-0.35
CCCc1cc(C(=O)NC2CCCCCC2)n[nH]1	-7	1.05
Cc1ccc(C2C(C)CCCN2C(=O)NC2CC2)cc1 (stereo not drawn)	0	0.01
O=C(NC[C@@H]1CCCN2CCCC[C@H]12)c1cc(-c2ccsc2)n[nH]1	-1	0.13
O=C(c1cnc(COc2ccc(F)cc2)nc1O)N1Cc2ccccc2C1	-15	1.49
COC(C)[C@H](C)NC(=O)NC1CCCCC1n1cccn1 (stereo partly drawn)	-4	0.51
c1ccc(CC2CCN(c3[nH]cnc4ncnc3-4)CC2)cc1	39	-4.37
O=C(NCC1(C2CCC2)CCC1)c1ncoc1C(F)(F)F	-6	1.15
NC(=O)N1CCCN(C[C@H](O)c2ccc(C(F)(F)F)cc2)CC1	-10	1.9
Cc1cccc(CN2[C@H](CNC(=O)c3c(C)noc3C)CN(C)C(=O)[C@@H]2C)c1	-6	0.8
O=C(NCC1(NC(=O)C2CCCC2)CCOCC1)C1CCCC1	-12	1.05
O=C(C[C@@]1(O)C(=O)N(CN2CCOCC2)c2ccccc21)c1ccc2ccccc2c1	-1	0.24
NC(=O)[C@@H]1CC(C(=O)Nc2cn[nH]c2)=NN1c1ccccc1	3	-0.26
CC1CCC(NC(=O)[C@H]2CCCN(S(=O)(=O)N3CCCCCC3)C2)CC1 (stereo partly drawn)	-17	2.09
CC(C)[C@@H]1C[C@H]1CNc1cccc(C(=O)O)n1	12	-1.59
CCCCC(=O)Nc1ccc(NC(=O)[C@@H](C)CN(C)C)cc1Cl	-12	1.57
Cc1nn(C)c(NC(=O)C(C)OC2CCCC(C)C2)c1C (stereo not drawn)	-2	0.34
CCc1nc(C(C)C)ccc1C(=O)NC[C@H](C)c1nncn1C	-5	0.66
O=C(c1ccc(O)cc1)N1C[C@H]2CC[C@@H](C1)N(Cc1ccccc1)C2	-3	0.45
CCn1nc(C(C)(C)c2cc(N)n(CC)n2)cc1N	0	0
Cc1nc2ccccn2c1CC(=O)NCC[C@H]1CCCOC1	-21	2.75
COC[C@H](C)N1CCC(CCC(=O)Nc2ccc3c(c2)OCCO3)CC1	-17	2.71
